# Source: the supplement of paper PMC8728848
# Some of the results follow.
# B1: GS7807P-bth-537-23-537 (Bacteroides thetaiotaomicron) (protein)
# chain: NYENINSNPYEAPDLSADGYALGSAMNNLAGCVVSPDVNTAQFTDCLLGGPLGGYFADSNAGFTETISNFNPKDDWSRVFLKSDKIIPTLYSNLTQVKLVSQNTNDPVPYAIAQVIKVAAMHRVTDAFGPIPYSQIGANGEIATPYDSQEVTYNTFFDELNAAIATLNENSNEQLVPTADYIYKGDVKKWIRFANSLKLRLAIRIAYANPVKAQQMAEEAVNPANGGVIESNADNATWNYFETSQNPIYVATRYNQVQTSDHGGVPCLTGGDTHAAADIICYMNGYKDNRREKFFTKSEWAGQDYVGMRRGIVIPELKTTGHKYSGVNIAPTSPLYWMNAAEVAFLRAEGQAVFNFSMGGTAESFYNQGIRLSFEQWGADGVEDYLKDDVNKPTAYTDPAGTNTYQNALSNITIKWNDSADKEEKQERIIVQKWIANWQLGNEAWADFRRTGYPKLIPVKENKSGGVVDSEKGARRMPYPLDEFVSNKANVEYAIANYLHGADNMATDVWWASKK
# Columns and labels:
# Experiment in all cases: glycan array binding signal (z-score within array); higher = stronger binding
# Conditions in all cases: glycan notation: IUPAC condensed, linker removed
# [1] = molecular target: Gal(b1-4)GlcNAc(b1-3)Gal(b1-4)GlcNAc(b1-3)Gal(b1-4)GlcNAc(b1-2)Man(a1-3)[Gal(b1-4)GlcNAc(b1-3)Gal(b1-4)GlcNAc(b1-3)Gal(b1-4)GlcNAc(b1-2)Man(a1-6)]Man(b1-4)GlcNAc(b1-4)GlcNAc
# Procedure, shortened: (§1)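 Negative Z-scores can be read as non-binding. The Z-score is calculated within each array and then averaged across arrays of one protein sequence at different concentrations or buffers and across linkers. Arrays, 3228 in all, were curated from the Consortium for Functional Glycomics database and kept only where the protein sequence was available.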
# [2] = molecular target: Gal(b1-4)GlcNAc(b1-3)Gal(b1-4)GlcNAc(b1-3)Gal(b1-4)GlcNAc(b1-2)Man(a1-3)[Gal(b1-4)GlcNAc(b1-3)Gal(b1-4)GlcNAc(b1-3)Gal(b1-4)GlcNAc(b1-2)Man(a1-6)]Man(b1-4)GlcNAc(b1-4)[Fuc(a1-6)]GlcNAc
# Procedure, shortened: as §1
# [3] = molecular target: Gal(b1-4)GlcNAc(b1-3)Gal(b1-4)GlcNAc(b1-3)Gal(b1-4)GlcNAc(b1-2)[Gal(b1-4)GlcNAc(b1-3)Gal(b1-4)GlcNAc(b1-3)Gal(b1-4)GlcNAc(b1-6)]Man(a1-6)[Gal(b1-4)GlcNAc(b1-3)Gal(b1-4)GlcNAc(b1-3)Gal(b1-4)GlcNAc(b1-2)Man(a1-3)]Man(b1-4)GlcNAc(b1-4)[Fuc(a1-6)]GlcNAc
# Procedure, shortened: as §1
# [4] = molecular target: Gal(b1-4)GlcNAc(b1-3)Gal(b1-4)GlcNAc(b1-3)Gal(b1-4)GlcNAc(b1-3)Gal(b1-4)GlcNAc(b1-2)Man(a1-3)[Gal(b1-4)GlcNAc(b1-3)Gal(b1-4)GlcNAc(b1-3)Gal(b1-4)GlcNAc(b1-3)Gal(b1-4)GlcNAc(b1-2)Man(a1-6)]Man(b1-4)GlcNAc(b1-4)GlcNAc
# Procedure, shortened: as §1
# [5] = molecular target: Gal(b1-4)GlcNAc(b1-3)Gal(b1-4)GlcNAc(b1-3)Gal(b1-4)GlcNAc(b1-3)Gal(b1-4)GlcNAc(b1-2)Man(a1-3)[Gal(b1-4)GlcNAc(b1-3)Gal(b1-4)GlcNAc(b1-3)Gal(b1-4)GlcNAc(b1-3)Gal(b1-4)GlcNAc(b1-2)Man(a1-6)]Man(b1-4)GlcNAc(b1-4)[Fuc(a1-6)]GlcNAc
# Procedure, shortened: as §1
# [6] = molecular target: Gal(b1-4)GlcNAc(b1-3)Gal(b1-4)GlcNAc(b1-3)Gal(b1-4)GlcNAc(b1-3)Gal(b1-4)GlcNAc(b1-2)[Gal(b1-4)GlcNAc(b1-3)Gal(b1-4)GlcNAc(b1-3)Gal(b1-4)GlcNAc(b1-3)Gal(b1-4)GlcNAc(b1-6)]Man(a1-6)[Gal(b1-4)GlcNAc(b1-3)Gal(b1-4)GlcNAc(b1-3)Gal(b1-4)GlcNAc(b1-3)Gal(b1-4)GlcNAc(b1-2)Man(a1-3)]Man(b1-4)GlcNAc(b1-4)[Fuc(a1-6)]GlcNAc
# Procedure, shortened: as §1
# [7] = molecular target: Gal(b1-4)GlcNAc(b1-3)Gal(b1-4)GlcNAc(b1-3)Gal(b1-4)GlcNAc(b1-3)Gal(b1-4)GlcNAc(b1-3)Gal(b1-4)GlcNAc(b1-2)Man(a1-3)[Gal(b1-4)GlcNAc(b1-3)Gal(b1-4)GlcNAc(b1-3)Gal(b1-4)GlcNAc(b1-3)Gal(b1-4)GlcNAc(b1-3)Gal(b1-4)GlcNAc(b1-2)Man(a1-6)]Man(b1-4)GlcNAc(b1-4)GlcNAc
# Procedure, shortened: as §1
# [8] = molecular target: Gal(b1-4)GlcNAc(b1-3)Gal(b1-4)GlcNAc(b1-3)Gal(b1-4)GlcNAc(b1-3)Gal(b1-4)GlcNAc(b1-3)Gal(b1-4)GlcNAc(b1-2)Man(a1-3)[Gal(b1-4)GlcNAc(b1-3)Gal(b1-4)GlcNAc(b1-3)Gal(b1-4)GlcNAc(b1-3)Gal(b1-4)GlcNAc(b1-3)Gal(b1-4)GlcNAc(b1-2)Man(a1-6)]Man(b1-4)GlcNAc(b1-4)[Fuc(a1-6)]GlcNAc
# Procedure, shortened: as §1
# [9] = molecular target: Gal(b1-4)GlcNAc(b1-3)Gal(b1-4)GlcNAc(b1-3)Gal(b1-4)GlcNAc(b1-3)Gal(b1-4)GlcNAc(b1-3)Gal(b1-4)GlcNAc(b1-2)[Gal(b1-4)GlcNAc(b1-3)Gal(b1-4)GlcNAc(b1-3)Gal(b1-4)GlcNAc(b1-3)Gal(b1-4)GlcNAc(b1-3)Gal(b1-4)GlcNAc(b1-6)]Man(a1-6)[Gal(b1-4)GlcNAc(b1-3)Gal(b1-4)GlcNAc(b1-3)Gal(b1-4)GlcNAc(b1-3)Gal(b1-4)GlcNAc(b1-3)Gal(b1-4)GlcNAc(b1-2)Man(a1-3)]Man(b1-4)GlcNAc(b1-4)[Fuc(a1-6)]GlcNAc
# Procedure, shortened: as §1
# [10] = molecular target: Gal(b1-4)GlcNAc(b1-3)Gal(b1-4)GlcNAc(b1-3)Gal(b1-4)GlcNAc(b1-3)Gal(b1-4)GlcNAc(b1-3)Gal(b1-4)GlcNAc(b1-3)Gal(b1-4)GlcNAc(b1-2)Man(a1-3)[Gal(b1-4)GlcNAc(b1-3)Gal(b1-4)GlcNAc(b1-3)Gal(b1-4)GlcNAc(b1-3)Gal(b1-4)GlcNAc(b1-3)Gal(b1-4)GlcNAc(b1-3)Gal(b1-4)GlcNAc(b1-2)Man(a1-6)]Man(b1-4)GlcNAc(b1-4)GlcNAc
# Procedure, shortened: as §1
# [11] = molecular target: Gal(b1-4)GlcNAc(b1-3)Gal(b1-4)GlcNAc(b1-3)GalNAc
# Procedure, shortened: as §1
# [12] = molecular target: Gal(b1-4)GlcNAc(b1-3)Gal(b1-4)GlcNAc(b1-3)[Gal(b1-4)GlcNAc(b1-3)Gal(b1-4)GlcNAc(b1-6)]GalNAc
# Procedure, shortened: as §1
# [13] = molecular target: Gal(b1-4)GlcNAc(b1-3)Gal(b1-4)GlcNAc(b1-6)[Gal(b1-3)]GalNAc
# Procedure, shortened: as §1
# [14] = molecular target: Gal(b1-4)GlcNAc(b1-3)Gal(b1-4)[Fuc(a1-3)]GlcNAc(b1-3)Gal(b1-4)[Fuc(a1-3)]GlcNAc
# Procedure, shortened: as §1
# [15] = molecular target: Gal(b1-4)GlcNAc(b1-3)GalNAc
# Procedure, shortened: as §1
# [16] = molecular target: Gal(b1-4)GlcNAc(b1-3)[Fuc(a1-3)GlcNAc(b1-6)]Gal(b1-4)Glc
# Procedure, shortened: as §1
# [17] = molecular target: Gal(b1-4)GlcNAc(b1-3)[Gal(b1-4)GlcNAc(b1-6)]Gal(b1-4)GlcNAc
# Procedure, shortened: as §1
# [18] = molecular target: Gal(b1-4)GlcNAc(b1-3)[GlcNAc(b1-6)]Gal(b1-4)GlcNAc
# Procedure, shortened: as §1
# [19] = molecular target: Gal(b1-4)GlcNAc(b1-6)Gal(b1-4)GlcNAc
# Procedure, shortened: as §1
binder,measurement,setting,value
B1,glycan array binding signal (z-score),[1],0.491
same,glycan array binding signal (z-score),[2],0.096
same,glycan array binding signal (z-score),[3],1.18
same,glycan array binding signal (z-score),[4],-0.358
same,glycan array binding signal (z-score),[5],0.306
same,glycan array binding signal (z-score),[6],0.587
same,glycan array binding signal (z-score),[7],-0.239
same,glycan array binding signal (z-score),[8],-0.261
same,glycan array binding signal (z-score),[9],-0.352
same,glycan array binding signal (z-score),[10],2.28
same,glycan array binding signal (z-score),[11],-0.246
same,glycan array binding signal (z-score),[12],-0.158
same,glycan array binding signal (z-score),[13],-0.003
same,glycan array binding signal (z-score),[14],0.943
same,glycan array binding signal (z-score),[15],-0.134
same,glycan array binding signal (z-score),[16],-0.071
same,glycan array binding signal (z-score),[17],1.04
same,glycan array binding signal (z-score),[18],-0.363
same,glycan array binding signal (z-score),[19],0.117
